# PubChem BioAssay AID624418 (National Center for Advancing Translational Sciences (NCATS), 2012)
# In all, about 410,000 compounds went through this assay and about 530 (0.13%) were called active. Inconclusive means that the source gave no clear call. Such entries were picked first, then a sample of the others. The call rests on the fitted dose curve; in most records, active means well fitted inhibition curve with a large enough effect; inconclusive means small, poorly fitted or top-dose-only effect, or another doubt; inactive means no such curve, though single readings can be large or run the other way. Potencies of inconclusive entries are doubtful fits and often do not repeat.
# Test: qHTS of GLP-1 Receptor Inverse Agonists: Cytotox Screen
# Conditions: HEK293 cAMP-luciferase reporter cells, luminescence, 24 h; activity change, negative = inhibition: at 38.3 µM (top of the series) unless noted
# Summary of the method: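 Compound-treated cells are incubated 24 hr at 37 deg C under 5% CO2 after a 12 hour attachment period, then luciferase detection reagent is added and luminescence is measured following 12 min at room temperature; lowered signal indicates toxicity.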
# On the % scale 0 is the no-effect control and ±100 the full control effect; potency means the concentration at half of the fitted maximal effect.
SMILES,"activity change, negative = inhibition",Potency
CCCCn1c(Cc2ccccc2)n[nH]c1=S,inactive: -19.1%,–
COc1cc(/C=C2\COC/C(=C\c3ccc(O)c(OC)c3)C2=O)ccc1O,–,"inconclusive: 7.08 µM [inhibitor, partial curve]"
Cc1cccc(C(C)(C)C)c1OCCOCCN1CCCC1,–,"inconclusive: 20 µM [inhibitor, single point]"
CC(C)(C)c1ccc(C(=O)NNc2ncnc3c2cnn3-c2ccccc2)cc1,inactive: 19.1%,–
CCOC(=O)c1ccc2[nH]c3c(c2c1)CCCCC3=O,inactive: 36%,–
O=S(=O)(c1cccs1)N1CN(Cc2ccccc2)c2nc3ccccc3nc21,inactive: -1.14%,–
CC(=O)Nc1ccc(S(=O)(=O)N2CCC(c3nnc(-c4ccc(C)cc4)o3)CC2)cc1,–,"inconclusive: 7.94 µM [inhibitor, partial curve, poor fit]"
O=C(c1ccco1)N1N=C(c2cccs2)CC1c1cc([N+](=O)[O-])ccc1O (centres undefined),–,"inconclusive: 11.2 µM [inhibitor, partial curve, poor fit]"
Cc1oc2c(cc(NS(=O)(=O)c3ccc(C(C)C)cc3)c3ccccc32)c1C(=O)O,–,inactive
Cc1ccc(-c2cc(C(=O)N3CCOCC3)no2)cc1,inactive: 4.85%,–
COc1cccc(NC(=O)C(Sc2nnc(Nc3ccccc3C)s2)c2ccccc2)c1 (centres undefined),–,"inconclusive: 5.01 µM [inhibitor, partial curve, poor fit]"
O=C(NCc1ccccc1)C(c1ccc(-c2ccccc2)cc1)N1CCN(CCN2CCOCC2)CC1 (centres undefined),inactive: -10.5%,–
CCOc1cc(C2C3=C(CCCC3=O)OC3=C2C(=O)CCC3)cc([N+](=O)[O-])c1O,–,"inconclusive: 3.16 µM [inhibitor, partial curve]"
CCOC(=O)C1=C(CN2CCc3ccccc32)NC(=O)NC1c1cccc([N+](=O)[O-])c1 (centres undefined),–,"inconclusive: 5.01 µM [inhibitor, partial curve]"
O=C(CN1C(=O)/C(=C/c2ccc(F)cc2)SC1=S)N1CCN(CCc2ccccn2)CC1,–,"inconclusive: 11.2 µM [inhibitor, single point]"
COc1ccc(-n2nnc3c(SCC(=O)NCC4CCCO4)ncnc32)cc1 (centres undefined),–,"inconclusive: 14.1 µM [inhibitor, single point]"
COC(=O)c1ccc(N2CCC(c3cc(-c4ccc(OC)cc4)n[nH]3)CC2)c([N+](=O)[O-])c1,–,"inconclusive: 12.6 µM [inhibitor, single point]"
Cc1ccc(-n2nnnc2-c2ccccc2)cc1,inactive: 14.2% [at 0.307 µM],–
Cc1ccc(C2/C(=C(/O)c3ccccc3)C(=O)C(=O)N2CCN2CCOCC2)o1 (centres undefined),–,"inconclusive: 2 µM [inhibitor, full curve, poor fit]"
CC1(C)CC(Nc2ccc(Nc3ccccc3)cc2)CC(C)(C)N1,–,"inconclusive: 22.4 µM [inhibitor, single point]"
C=CCNCC(=O)N1N=C(c2ccc3ccccc3c2)CC1c1ccc(OC)cc1 (centres undefined),–,"inconclusive: 20 µM [inhibitor, single point]"
CN(C)c1ccc(C(CNC(=O)COc2ccc(Cl)cc2)N2CCCC2)cc1 (centres undefined),inactive: -22.4%,–

SMILES,"activity change, negative = inhibition",Potency
O=C(NNc1ncc(C(F)(F)F)cc1Cl)c1c(Cl)cccc1Cl,–,"inconclusive: 5.62 µM [inhibitor, partial curve]"
CCN(CC)S(=O)(=O)c1ccc(NC(=O)Nc2cccc(C(F)(F)F)c2)cc1,–,"inconclusive: 11.2 µM [inhibitor, single point]"
CCC(=O)NC(NC(=S)Nc1cccc2cccnc12)C(Cl)(Cl)Cl (centres undefined),inactive: 4.92%,–
C=CCSc1nc(=O)n2ccc(C)cc2n1,–,"inconclusive: 5.01 µM [inhibitor, full curve, poor fit]"
CCCN1CCC(Oc2cccc(C(=O)NCCc3ccccc3)c2)CC1,–,"inconclusive: 14.1 µM [inhibitor, single point]"
CCS(=O)(=O)c1ncc(Cl)c(C(=O)Nc2ccc(S(=O)(=O)N3CCC(C)CC3)cc2)n1,inactive: 6.13%,–
CCN(CC)S(=O)(=O)c1cc([N+](=O)[O-])ccc1NNC(=O)Nc1ccccc1OC,–,"inconclusive: 7.94 µM [inhibitor, partial curve, poor fit]"
Cc1ccc2[nH]c(C)cc(=S)c2c1,–,"inconclusive: 22.4 µM [inhibitor, single point]"
CC(C)CCOCC(=O)Oc1ccccc1C(=O)O,inactive: -4.26%,–
CCn1c(=O)c2cc(C(=O)NCCCOC)sc2c2ccccc21,–,"inconclusive: 8.91 µM [inhibitor, partial curve, poor fit]"
CC(=O)c1cccc(N(C(=O)c2ccccn2)C(C(=O)NC2CCCCC2)c2cccs2)c1 (centres undefined),–,"inconclusive: 28.2 µM [inhibitor, single point]"
CC(C)n1c(-c2ccc(N(C)C)cc2)nc2ccccc21,–,"inconclusive: 11.2 µM [inhibitor, partial curve, poor fit]"
COc1ccc(S(=O)(=O)N(C)c2ccc(C(=O)NCCC(C)C)cc2)cc1,–,"inconclusive: 22.4 µM [inhibitor, single point]"
Cc1cc(Br)ccc1OCCCCN1CCC(C)CC1,–,"inconclusive: 28.2 µM [inhibitor, single point]"
Cc1cc(C(=O)OCC(=O)NCc2ccco2)c(C)n1-c1ccccc1,–,"inconclusive: 1.12 µM [inhibitor, full curve]"
Cc1c(Cl)c([N+](=O)[O-])nn1CCCC(=O)N1CCN(c2ccccc2)CC1,inactive: 3.75%,–
C=CCc1cccc(CNc2nc3ccccc3n2CCC)c1O,inactive: -23.7%,–
Cc1cc(C(=O)N2CCN(c3ccc([N+](=O)[O-])cc3)CC2)c(C)o1,–,"inconclusive: 28.2 µM [inhibitor, single point]"
Cc1ccc(C(=O)c2cn(Cc3cccc(C)c3)c3nc(C)ccc3c2=O)cc1,inactive: 3.69%,–
Cc1ccc(CNC(=O)c2nc(SCc3ccc(F)cc3)ncc2Cl)cc1,inactive: 20.9%,–
CCOC(=O)/C(C#N)=C\C1=C(N2CCCC2)CC(C)(C)OC1,–,"inconclusive: 7.08 µM [inhibitor, partial curve, poor fit]"
COc1cc(C(=O)OCC(=O)N2CCCC2=O)cc(OC)c1C,inactive: 14.2%,–
